Assay results reported in article PMC12820563.
This is one part of the list. The list includes weakly bound sequences.

Target: T1, MBP-FoxP3dN (UniProt Q99JB6)
T1 sequence: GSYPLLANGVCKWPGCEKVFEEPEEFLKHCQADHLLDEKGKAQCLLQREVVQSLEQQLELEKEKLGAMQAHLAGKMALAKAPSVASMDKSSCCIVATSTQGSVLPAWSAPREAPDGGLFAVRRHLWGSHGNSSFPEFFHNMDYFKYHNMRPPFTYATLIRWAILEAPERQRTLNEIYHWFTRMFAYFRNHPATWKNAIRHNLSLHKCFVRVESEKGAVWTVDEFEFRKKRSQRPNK
Test: PD-seq (MBP pull-down with sequencing)
Conditions: 20 mM Tris-HCl pH 7.5, 100 mM NaCl, 1.5 mM MgCl2, 0.4 uM protein, 0.1 uM dsDNA library, 30 min, room temperature, amylose pull-down; high values mean tight binding; double strand, one strand shown

Row | Sequence | binding signal (RPM ratio (pull-down/input))
1 | GATGATTGTTCTCCCAGCTGATGAATTTAGGCTTTCGAGTAAACAAATTTTCCTAATCTTTCTGTTCAAGCGCCATCTAC | 1.19
2 | GATGATTGTTCTCCCAGCTGATGAATTCTCGCAGTCGAGTAAACAAATTTTCCTAATCTTTCTGTTCAAGCGCCATCTAC | 0.436
3 | GATGATTGTTCTCCCAGCTGATGAATTCGAGTGCTCGAGTAAACAAATTTTCCTAATCTTTCTGTTCAAGCGCCATCTAC | 0.572
4 | GATGATTGTTCTCCCAGCTGATGAATTAGTTACTTCGAGTAAACAAATTTTCCTAATCTTTCTGTTCAAGCGCCATCTAC | 1.03
5 | GATGATTGTTCTCCCAGCTGATGAATTCAGCCAGTCGAGTAAACAAATTTTCCTAATCTTTCTGTTCAAGCGCCATCTAC | 1.27
6 | GATGATTGTTCTCCCAGCTGATGAATTGTGCTAATCGAGTAAACAAATTTTCCTAATCTTTCTGTTCAAGCGCCATCTAC | 0.571
7 | GATGATTGTTCTCCCAGCTGATGAATTACCTCTCTCGAGTAAACAAATTTTCCTAATCTTTCTGTTCAAGCGCCATCTAC | 0.327
8 | GATGATTGTTCTCCCAGCTGATGAATTCGCCGGCTCGAGTAAACAAATTTTCCTAATCTTTCTGTTCAAGCGCCATCTAC | 0.225
9 | GATGATTGTTCTCCCAGCTGATGAATTGGCTGCATCGAGTAAACAAATTTTCCTAATCTTTCTGTTCAAGCGCCATCTAC | 1.02
10 | GATGATTGTTCTCCCAGCTGATGAATTACTCTCATCGAGTAAACAAATTTTCCTAATCTTTCTGTTCAAGCGCCATCTAC | 0.35
11 | GATGATTGTTCTCCCAGCTGATGAATTTGAAACTTCGAGTAAACAAATTTTCCTAATCTTTCTGTTCAAGCGCCATCTAC | 0.279
12 | GATGATTGTTCTCCCAGCTGATGAATTCTCATTGTCGAGTAAACAAATTTTCCTAATCTTTCTGTTCAAGCGCCATCTAC | 0.606
13 | GATGATTGTTCTCCCAGCTGATGAATTAGCACAATCGAGTAAACAAATTTTCCTAATCTTTCTGTTCAAGCGCCATCTAC | 0.552
14 | GATGATTGTTCTCCCAGCTGATGAATTCTTGTCCTCGAGTAAACAAATTTTCCTAATCTTTCTGTTCAAGCGCCATCTAC | 0.325
15 | GATGATTGTTCTCCCAGCTGATGAATTTCTTAACTCGAGTAAACAAATTTTCCTAATCTTTCTGTTCAAGCGCCATCTAC | 0.224
16 | GATGATTGTTCTCCCAGCTGATGAATTGATAGCCTCGAGTAAACAAATTTTCCTAATCTTTCTGTTCAAGCGCCATCTAC | 0.653
17 | GATGATTGTTCTCCCAGCTGATGAATTGCAATATTCGAGTAAACAAATTTTCCTAATCTTTCTGTTCAAGCGCCATCTAC | 1.86
18 | GATGATTGTTCTCCCAGCTGATGAATTTTGAGCCTCGAGTAAACAAATTTTCCTAATCTTTCTGTTCAAGCGCCATCTAC | 0.568
19 | GATGATTGTTCTCCCAGCTGATGAATTATCCACATCGAGTAAACAAATTTTCCTAATCTTTCTGTTCAAGCGCCATCTAC | 0.467
20 | GATGATTGTTCTCCCAGCTGATGAATTGCCCTAGTCGAGTAAACAAATTTTCCTAATCTTTCTGTTCAAGCGCCATCTAC | 0.363

Row | Sequence | binding signal (RPM ratio (pull-down/input))
21 | GATGATTGTTCTCCCAGCTGATGAATTCAATCCTTCGAGTAAACAAATTTTCCTAATCTTTCTGTTCAAGCGCCATCTAC | 0.264
22 | GATGATTGTTCTCCCAGCTGATGAATTTCATTGTTCGAGTAAACAAATTTTCCTAATCTTTCTGTTCAAGCGCCATCTAC | 2.03
23 | GATGATTGTTCTCCCAGCTGATGAATTAGTCAGATCGAGTAAACAAATTTTCCTAATCTTTCTGTTCAAGCGCCATCTAC | 0.274
24 | GATGATTGTTCTCCCAGCTGATGAATTTCGCGTGTCGAGTAAACAAATTTTCCTAATCTTTCTGTTCAAGCGCCATCTAC | 4.44
25 | GATGATTGTTCTCCCAGCTGATGAATTTTAGCCCTCGAGTAAACAAATTTTCCTAATCTTTCTGTTCAAGCGCCATCTAC | 0.446
26 | GATGATTGTTCTCCCAGCTGATGAATTCACAGACTCGAGTAAACAAATTTTCCTAATCTTTCTGTTCAAGCGCCATCTAC | 0.226
27 | GATGATTGTTCTCCCAGCTGATGAATTCGTAAAATCGAGTAAACAAATTTTCCTAATCTTTCTGTTCAAGCGCCATCTAC | 0.21
28 | GATGATTGTTCTCCCAGCTGATGAATTTGCGGTATCGAGTAAACAAATTTTCCTAATCTTTCTGTTCAAGCGCCATCTAC | 1.46
29 | GATGATTGTTCTCCCAGCTGATGAATTGTCCATCTCGAGTAAACAAATTTTCCTAATCTTTCTGTTCAAGCGCCATCTAC | 0.502
30 | GATGATTGTTCTCCCAGCTGATGAATTGTCTCAATCGAGTAAACAAATTTTCCTAATCTTTCTGTTCAAGCGCCATCTAC | 0.399
31 | GATGATTGTTCTCCCAGCTGATGAATTTGCGATGTCGAGTAAACAAATTTTCCTAATCTTTCTGTTCAAGCGCCATCTAC | 1.64
32 | GATGATTGTTCTCCCAGCTGATGAATTTCAATACTCGAGTAAACAAATTTTCCTAATCTTTCTGTTCAAGCGCCATCTAC | 0.528
33 | GATGATTGTTCTCCCAGCTGATGAATTAGGGCACTCGAGTAAACAAATTTTCCTAATCTTTCTGTTCAAGCGCCATCTAC | 0.441
34 | GATGATTGTTCTCCCAGCTGATGAATTTGCCGAATCGAGTAAACAAATTTTCCTAATCTTTCTGTTCAAGCGCCATCTAC | 0.346
35 | GATGATTGTTCTCCCAGCTGATGAATTATCCCTGTCGAGTAAACAAATTTTCCTAATCTTTCTGTTCAAGCGCCATCTAC | 0.285
36 | GATGATTGTTCTCCCAGCTGATGAATTAAGCACATCGAGTAAACAAATTTTCCTAATCTTTCTGTTCAAGCGCCATCTAC | 0.847
37 | GATGATTGTTCTCCCAGCTGATGAATTCAGACATTCGAGTAAACAAATTTTCCTAATCTTTCTGTTCAAGCGCCATCTAC | 0.869
38 | GATGATTGTTCTCCCAGCTGATGAATTGTTTCAATCGAGTAAACAAATTTTCCTAATCTTTCTGTTCAAGCGCCATCTAC | 0.612
39 | GATGATTGTTCTCCCAGCTGATGAATTTAGTGGGTCGAGTAAACAAATTTTCCTAATCTTTCTGTTCAAGCGCCATCTAC | 1.06
40 | GATGATTGTTCTCCCAGCTGATGAATTAAGAGCATCGAGTAAACAAATTTTCCTAATCTTTCTGTTCAAGCGCCATCTAC | 0.765
